Test results as given in a collection of fitness landscapes (doi:10.1016/j.celrep.2020.107928).
Over roughly 81,000 sequences, “one-hybrid fitness for binding parS DNA” has its median near -0.17; the highest 2% begin near 0.51. The list shows a part of the results.

B1: Caulobacter ParB omega fusion; a variant is named by its letters at X, in order, B8GW30 (parent)
chain: MESVVVGEPGMSEGRRGLGRGLSALLGEVDAAPAQAPGEQLGGSREAPIEILQRNPDQPRRTFREEDLEDLSNSIREKGVLQPILVRPSPDTAGEYQIVAGERAWRAAQRAGLKTVPIMVRELDDLAVLEIGIIENVQRADLNVLEEALSYKVLMEKFERTQENIAQTIGKSXSHVANXMRLLXLPDEVQSYLVSGELTAXHARAIAAAADPVALAKQIIEGGLSVRETEALARKAPNLSAGKSKGGRPPRVKDTDTQALESDLSSVLGLDVSIDHRGSTGTLTITYATLEQLDDLCNRLTRGI

Variants of: B1
Test: one-hybrid fitness for binding parS DNA (scaled: cognate 1, non-cognate 0); higher = stronger binding
Conditions: with parS DNA site
Procedure, shortened: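 The reporter was HIS3, with the binding site 19 bp from the promoter, in E. coli USO used for bacterial one-hybrid selection of Caulobacter ParB libraries with four specificity codons randomised. Growth was on M9 lacking histidine, with 0.1 mM IPTG and 5 mM 3-AT, for 48 hours at 37°C. Illumina sequencing covered plasmids before and after selection; three replicate libraries were pooled and variants with under 10 reads dropped. A fitness score is the log change in variant-to-wild-type read ratio, rescaled to the cognate and non-cognate references.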

PQPR and AIMG cannot be ordered by “one-hybrid fitness for binding parS DNA” value: at most 0.2 for the first, at most 0.2 for the second.

YWRN and DLYM cannot be ordered by “one-hybrid fitness for binding parS DNA” value: at most 0.2 for the first, at most 0.2 for the second.

First: ASCL
Second: RKMG
The “one-hybrid fitness for binding parS DNA” value of the first is lower: at most 0.2 for the first, 0.951 for the second.

QPEY and GWVR cannot be ordered by “one-hybrid fitness for binding parS DNA” value: at most 0.2 for the first, at most 0.2 for the second.

IRAF and QHVT cannot be ordered by “one-hybrid fitness for binding parS DNA” value: at most 0.2 for the first, at most 0.2 for the second.

RESL and YWVL cannot be ordered by “one-hybrid fitness for binding parS DNA” value: at most 0.2 for the first, at most 0.2 for the second.

AFHR and ASMR cannot be ordered by “one-hybrid fitness for binding parS DNA” value: at most 0.2 for the first, at most 0.2 for the second.

QTCD and RTMK cannot be ordered by “one-hybrid fitness for binding parS DNA” value: at most 0.2 for the first, at most 0.2 for the second.

TPTF and YLSD cannot be ordered by “one-hybrid fitness for binding parS DNA” value: at most 0.2 for the first, at most 0.2 for the second.

QPPK and WPVC cannot be ordered by “one-hybrid fitness for binding parS DNA” value: at most 0.2 for the first, at most 0.2 for the second.

LRGA and ANQR cannot be ordered by “one-hybrid fitness for binding parS DNA” value: at most 0.2 for the first, at most 0.2 for the second.

SIHV and CGAE cannot be ordered by “one-hybrid fitness for binding parS DNA” value: at most 0.2 for the first, at most 0.2 for the second.

PDTR and PKYG cannot be ordered by “one-hybrid fitness for binding parS DNA” value: at most 0.2 for the first, at most 0.2 for the second.

Going from EIEL to WFTR, the “one-hybrid fitness for binding parS DNA” value falls from 0.24 to at most 0.2.

VGQM and PTYE cannot be ordered by “one-hybrid fitness for binding parS DNA” value: at most 0.2 for the first, at most 0.2 for the second.

First: SNWT
Second: RYET
The “one-hybrid fitness for binding parS DNA” value of the first is lower: at most 0.2 for the first, 0.772 for the second.

PPAE and FVAC cannot be ordered by “one-hybrid fitness for binding parS DNA” value: at most 0.2 for the first, at most 0.2 for the second.

QCST and QPVR cannot be ordered by “one-hybrid fitness for binding parS DNA” value: at most 0.2 for the first, at most 0.2 for the second.

LLLN and TTHD cannot be ordered by “one-hybrid fitness for binding parS DNA” value: at most 0.2 for the first, at most 0.2 for the second.

YDYI and QMFS cannot be ordered by “one-hybrid fitness for binding parS DNA” value: at most 0.2 for the first, at most 0.2 for the second.

NVLT and VYTT cannot be ordered by “one-hybrid fitness for binding parS DNA” value: at most 0.2 for the first, at most 0.2 for the second.

NLHH and PRHA cannot be ordered by “one-hybrid fitness for binding parS DNA” value: at most 0.2 for the first, at most 0.2 for the second.

IKVF and PNTC cannot be ordered by “one-hybrid fitness for binding parS DNA” value: at most 0.2 for the first, at most 0.2 for the second.

SVEG and SNAT cannot be ordered by “one-hybrid fitness for binding parS DNA” value: at most 0.2 for the first, at most 0.2 for the second.

LSSR and PQWW cannot be ordered by “one-hybrid fitness for binding parS DNA” value: at most 0.2 for the first, at most 0.2 for the second.

SEWR and GFTP cannot be ordered by “one-hybrid fitness for binding parS DNA” value: at most 0.2 for the first, at most 0.2 for the second.

DHPI and QCVT cannot be ordered by “one-hybrid fitness for binding parS DNA” value: at most 0.2 for the first, at most 0.2 for the second.

KCSF and ATHW cannot be ordered by “one-hybrid fitness for binding parS DNA” value: at most 0.2 for the first, at most 0.2 for the second.

IRHF and HRHP cannot be ordered by “one-hybrid fitness for binding parS DNA” value: at most 0.2 for the first, at most 0.2 for the second.

LYWE and HEKD cannot be ordered by “one-hybrid fitness for binding parS DNA” value: at most 0.2 for the first, at most 0.2 for the second.

KADC and HCEG cannot be ordered by “one-hybrid fitness for binding parS DNA” value: at most 0.2 for the first, at most 0.2 for the second.

NVNR and PACR cannot be ordered by “one-hybrid fitness for binding parS DNA” value: at most 0.2 for the first, at most 0.2 for the second.

HRHT and AGGQ cannot be ordered by “one-hybrid fitness for binding parS DNA” value: at most 0.2 for the first, at most 0.2 for the second.

PDNW and KNPS cannot be ordered by “one-hybrid fitness for binding parS DNA” value: at most 0.2 for the first, at most 0.2 for the second.

GVPG and GSWG cannot be ordered by “one-hybrid fitness for binding parS DNA” value: at most 0.2 for the first, at most 0.2 for the second.

TTLI and DFLP cannot be ordered by “one-hybrid fitness for binding parS DNA” value: at most 0.2 for the first, at most 0.2 for the second.

QTES and KERS cannot be ordered by “one-hybrid fitness for binding parS DNA” value: at most 0.2 for the first, at most 0.2 for the second.

ASEG and NIGW cannot be ordered by “one-hybrid fitness for binding parS DNA” value: at most 0.2 for the first, at most 0.2 for the second.

KRFK and WMIA cannot be ordered by “one-hybrid fitness for binding parS DNA” value: at most 0.2 for the first, at most 0.2 for the second.

YNSC and DNVS cannot be ordered by “one-hybrid fitness for binding parS DNA” value: at most 0.2 for the first, at most 0.2 for the second.

WLNT and LDES cannot be ordered by “one-hybrid fitness for binding parS DNA” value: at most 0.2 for the first, at most 0.2 for the second.

NQTS and KCKK cannot be ordered by “one-hybrid fitness for binding parS DNA” value: at most 0.2 for the first, at most 0.2 for the second.

MSLT and CRHR cannot be ordered by “one-hybrid fitness for binding parS DNA” value: at most 0.2 for the first, at most 0.2 for the second.

RMEP and GSRV cannot be ordered by “one-hybrid fitness for binding parS DNA” value: at most 0.2 for the first, at most 0.2 for the second.

HKTR and KSMI cannot be ordered by “one-hybrid fitness for binding parS DNA” value: at most 0.2 for the first, at most 0.2 for the second.

FGTM and KLFE cannot be ordered by “one-hybrid fitness for binding parS DNA” value: at most 0.2 for the first, at most 0.2 for the second.

TCSV and NELV cannot be ordered by “one-hybrid fitness for binding parS DNA” value: at most 0.2 for the first, at most 0.2 for the second.

GCSS and PPSF cannot be ordered by “one-hybrid fitness for binding parS DNA” value: at most 0.2 for the first, at most 0.2 for the second.

AYAM and NPKY cannot be ordered by “one-hybrid fitness for binding parS DNA” value: at most 0.2 for the first, at most 0.2 for the second.

GMPT and PYGG cannot be ordered by “one-hybrid fitness for binding parS DNA” value: at most 0.2 for the first, at most 0.2 for the second.

CRHA and QVFY cannot be ordered by “one-hybrid fitness for binding parS DNA” value: at most 0.2 for the first, at most 0.2 for the second.

KRKA and LISM cannot be ordered by “one-hybrid fitness for binding parS DNA” value: at most 0.2 for the first, at most 0.2 for the second.

FATD and DLRY cannot be ordered by “one-hybrid fitness for binding parS DNA” value: at most 0.2 for the first, at most 0.2 for the second.

FGMR and RPQE cannot be ordered by “one-hybrid fitness for binding parS DNA” value: at most 0.2 for the first, at most 0.2 for the second.

GTLL and VQSC cannot be ordered by “one-hybrid fitness for binding parS DNA” value: at most 0.2 for the first, at most 0.2 for the second.

PHAL and NISL cannot be ordered by “one-hybrid fitness for binding parS DNA” value: at most 0.2 for the first, at most 0.2 for the second.

IAHF and QGPQ cannot be ordered by “one-hybrid fitness for binding parS DNA” value: at most 0.2 for the first, at most 0.2 for the second.

SAYS and CKRT cannot be ordered by “one-hybrid fitness for binding parS DNA” value: at most 0.2 for the first, at most 0.2 for the second.

TWRC and DGLF cannot be ordered by “one-hybrid fitness for binding parS DNA” value: at most 0.2 for the first, at most 0.2 for the second.

RWQK and RANE cannot be ordered by “one-hybrid fitness for binding parS DNA” value: at most 0.2 for the first, at most 0.2 for the second.

AAAW and GLPF cannot be ordered by “one-hybrid fitness for binding parS DNA” value: at most 0.2 for the first, at most 0.2 for the second.

TPIL and SANP cannot be ordered by “one-hybrid fitness for binding parS DNA” value: at most 0.2 for the first, at most 0.2 for the second.

PNAH and IVMG cannot be ordered by “one-hybrid fitness for binding parS DNA” value: at most 0.2 for the first, at most 0.2 for the second.

LGTH and LVEQ cannot be ordered by “one-hybrid fitness for binding parS DNA” value: at most 0.2 for the first, at most 0.2 for the second.

QMYR and NRTG cannot be ordered by “one-hybrid fitness for binding parS DNA” value: at most 0.2 for the first, at most 0.2 for the second.

GLQG and TAVR cannot be ordered by “one-hybrid fitness for binding parS DNA” value: at most 0.2 for the first, at most 0.2 for the second.

QVMV and SAHA cannot be ordered by “one-hybrid fitness for binding parS DNA” value: at most 0.2 for the first, at most 0.2 for the second.

CGAH and NVWG cannot be ordered by “one-hybrid fitness for binding parS DNA” value: at most 0.2 for the first, at most 0.2 for the second.

Compared with RKDY, SIIG is lower in “one-hybrid fitness for binding parS DNA” value: 0.38 for the first, at most 0.2 for the second.

QKCI and DHCT cannot be ordered by “one-hybrid fitness for binding parS DNA” value: at most 0.2 for the first, at most 0.2 for the second.

WTHQ and NRSN cannot be ordered by “one-hybrid fitness for binding parS DNA” value: at most 0.2 for the first, at most 0.2 for the second.

AYAL and PCTF cannot be ordered by “one-hybrid fitness for binding parS DNA” value: at most 0.2 for the first, at most 0.2 for the second.

Going from RNGG to QNQA, the “one-hybrid fitness for binding parS DNA” value falls from 0.841 to at most 0.2.

LQAQ and LRCV cannot be ordered by “one-hybrid fitness for binding parS DNA” value: at most 0.2 for the first, at most 0.2 for the second.

Compared with QTVG, RHNG is higher in “one-hybrid fitness for binding parS DNA” value: at most 0.2 for the first, 0.953 for the second.

ESNG and QTPV cannot be ordered by “one-hybrid fitness for binding parS DNA” value: at most 0.2 for the first, at most 0.2 for the second.

With HYAW the “one-hybrid fitness for binding parS DNA” value was at most 0.2.
